Measurements from PubChem BioAssay AID1159614 (National Center for Advancing Translational Sciences (NCATS), 2016).
Among all 45,000 compounds or so, about 65 (0.1%) were called active. Calls follow the shape of the dose curve; as a rule, active = well fitted activation curve with a large enough effect; inconclusive = small, poorly fitted or top-dose-only effect; inactive = no such curve, though single readings can be large or run the other way. The list shows a part of the results.

Target: Galactocerebrosidase (Homo sapiens) (UniProt P54803)
Assay: A Novel Cell-Based Assay to Identify Small Molecules for B -Galactocerebrosidase; also: 0% is about no effect; nearly all actives have a fitted effect of over 65% in size
Conditions: 145M-Twi-hGALC-G270D cells, HMU-beta-Gal fluorescence, 48 h; series mostly up to 57.5 µM; activation: at the top concentration
How it was run: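 qHTS, 1536-well; 145M-Twi-hGALC-G270D cells (WT line also made) in DMEM/F12 + 10% FBS; compound incubation on live cells; HMU-β-gal 0.1 mM final, pH 5.2, NaTC; carbonate stop; fluorescence increase = enhanced residual activity.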

UniProt P54803, sequence (P54803 whole entry, looked up): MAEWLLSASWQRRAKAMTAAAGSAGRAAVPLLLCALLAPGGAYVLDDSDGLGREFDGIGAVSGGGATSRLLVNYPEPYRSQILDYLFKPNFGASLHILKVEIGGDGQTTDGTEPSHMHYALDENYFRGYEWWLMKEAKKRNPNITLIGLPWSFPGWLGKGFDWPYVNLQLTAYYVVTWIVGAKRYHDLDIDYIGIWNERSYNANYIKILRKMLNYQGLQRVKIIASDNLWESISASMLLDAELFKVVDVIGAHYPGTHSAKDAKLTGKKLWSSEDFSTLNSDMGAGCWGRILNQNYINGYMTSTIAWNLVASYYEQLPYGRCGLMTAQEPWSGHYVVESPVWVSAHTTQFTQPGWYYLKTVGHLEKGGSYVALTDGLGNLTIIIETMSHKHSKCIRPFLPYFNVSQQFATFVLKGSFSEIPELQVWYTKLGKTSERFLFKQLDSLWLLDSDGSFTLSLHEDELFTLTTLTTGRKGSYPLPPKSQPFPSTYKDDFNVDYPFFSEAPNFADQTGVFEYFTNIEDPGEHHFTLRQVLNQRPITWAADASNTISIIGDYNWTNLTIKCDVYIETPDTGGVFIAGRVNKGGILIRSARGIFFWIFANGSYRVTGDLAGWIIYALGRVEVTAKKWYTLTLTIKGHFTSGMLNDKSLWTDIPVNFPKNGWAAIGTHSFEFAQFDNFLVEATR

activation, inactive:
Cc1ccc(-c2noc(CSc3nnc(C)n3-c3ccc(F)cc3)n2)cc1 -15.5%
Cc1cccc(C)c1NC(=O)CCS(=O)(=O)c1ccc2c(c1)n(C)c(=O)c(=O)n2C 18.8%
COc1ccc(CNC(=O)c2ccc(NC(=O)N3CCCCc4ccccc43)cc2)c(OC)c1 -2.11%
Cc1cc(SCC(=O)NCc2ccccc2Cl)nc(=O)[nH]1 -18.5%
Cc1cccc(-c2nc(C)c(CCNC(=O)C(=O)Nc3c(C)cc(C)cc3C)s2)c1 -39.7%
CCOC(=O)c1ccccc1NC(=O)Cn1c(=O)n(Cc2ccc(C(=O)NCc3ccc4c(c3)OCO4)cc2)c(=O)c2ccccc21 -12.5%
COc1ccc(C(=O)Nc2cccc(-c3nc4cccnc4s3)c2C)c(OC)c1 -5.58%
CCOc1ccc(NC(=O)C2CCCN(S(=O)(=O)c3ccc(Br)s3)C2)cc1 (stereo unspecified) -3.18%
Cc1ccc(-c2c(C)n3c4c(=O)n(C)c(=O)n(C)c4nc3n2CCCO)cc1 -1.82%
O=C(CCn1cnnn1)Nc1ccccc1 -8.81%
O=C(CSc1nc2c([nH]c3ccccc32)c(=O)n1-c1ccccc1)Nc1ccccc1F -12%
COc1cccc(Cn2cnc3c2c(=O)n(C)c(=O)n3C)c1 -21.4%
Cc1c2cnn(CC(=O)NCc3ccc(F)cc3)c(=O)c2c(C)n1Cc1ccccc1Cl -7.62%
COc1ccc(-c2nc(C)c(CCNC(=O)c3ccccc3Br)s2)cc1OC -21.3%
COCCCNC(=O)C1CCN(c2ncnc3c2nc2n3CCCCC2)CC1 -11.1%
O=C(Nc1cccc(C(F)(F)F)c1)c1ccc(F)c(S(=O)(=O)N2CCc3ccccc3C2)c1 -10.4%
CCOc1cc(Br)c(C2C(C(=O)OC)=C(C)NC3=C2C(=O)c2ccccc23)cc1OCC (stereo unspecified) 1.76%
CC(=O)N1CCCc2cc(S(=O)(=O)N3CCC(N(C)C(C)C)CC3)ccc21 -14.5%
Cc1cccc(C(=O)NC(=O)Nc2ccc(-n3nc(C(F)(F)F)cc3C(F)(F)F)cc2)c1 -20.2%
CC(=O)N1c2c(cc(Br)cc2S(=O)(=O)Nc2ccccc2C)CC1C (stereo unspecified) -7.15%
CCC(C)NC(=O)C1CCN(S(=O)(=O)c2ccc3c(ccn3CC)c2)CC1 (stereo unspecified) -10.9%
Cc1nc2c(C(=O)NCCC(C)C)cnn2c(C)c1Cc1c(F)cccc1Cl 28%
COc1ccc2c(c1)c1c(c(=O)n(-c3ccc(C)cc3)c(=O)n1CC(=O)Nc1cc(C)ccc1C)n2C -5.52%
CC1CCCN(Cc2c(O)ccc3c(=O)c(-c4ccc(Cl)cc4)c(C(F)(F)F)oc23)C1 (stereo unspecified) -5.45%
COc1cc2c(cc1OC)C(c1cc(OC)c(O)c(OC)c1)CC(=O)N2 (stereo unspecified) -6.22%
COc1cccc2sc(N(Cc3cccnc3)C(=O)c3ccc(S(=O)(=O)N(C)C)cc3)nc12 -3.26%
CCOC(=O)C1CCCN(C(=O)C2CCN(S(=O)(=O)c3c(C)noc3/C=C/c3ccc(C)cc3)CC2)C1 (stereo unspecified) -10.1%
COc1ccccc1CNC(=O)c1cc2cc(S(=O)(=O)N3CCCCC3)ccc2n1C -16.2%
O=C(O)c1ccccc1NC(=O)N1c2ccccc2Sc2ccccc21 0.967%
COc1ccc(-c2cc(C(F)(F)F)nc(SCC(=O)Nc3ccc(C(C)=O)cc3)n2)cc1 -20.8%
COc1nnc(-c2ccc(N3CCCCC3)c(NC(=O)c3ccc(Cl)cc3)c2)c2ccccc12 -3.39%
CCc1cc(=O)[nH]c(SCc2nc(-c3ccccc3C)no2)n1 8.39%
CCOC(=O)C1CCN(c2ncnc3c2c(-c2ccccc2)cn3-c2ccc(C)c(Cl)c2)CC1 -9.85%
Cc1cc(C)cc(N2C(=O)CS(=O)(=O)C23C(=O)N(Cc2ccccc2)c2ccccc23)c1 (stereo unspecified) -21.4%
Cc1cc(OCC(=O)Nc2ncn[nH]2)c(C)c(C)c1Br -4.47%
CC(C)(O)c1ccccc1CC[C@@H](SCC1(CC(=O)O)CC1)c1cccc(/C=C/c2ccc3ccc(Cl)cc3n2)c1 -14.2%
O=C(/C=C/c1cn(CC(O)CN2CCc3ccccc32)c2ccccc12)c1ccc(Br)cc1 (stereo unspecified) -18.2%
CCC(=O)N1c2ccc(S(=O)(=O)NCCc3ccccc3)cc2CC1C (stereo unspecified) -7.45%
O=C1NC(=O)C(c2ccccc2)(c2ccccc2)N1 -8%
COc1ccc(OC)c(NC(=O)c2nc(SCc3ccc(F)cc3)ncc2Cl)c1 8.86%
O=C(NCCc1csc(-c2ccc(F)cc2)n1)C(=O)Nc1ccc(Cl)cc1 -16.4%
CCOC(=O)c1[nH]c(C)c(CCC(=O)NCc2ccc(OC(C)C)cc2)c1C -13.3%
COc1ccc(C)cc1NC(=O)C1CCN(S(=O)(=O)c2cccc3nonc23)CC1 -5.93%
Cc1ccc(CNS(=O)(=O)c2c(C(=O)N3CCC(C)CC3)c(C)n(C)c2C)cc1 -0.345%
COC(=O)c1ccccc1NC(=O)N(Cc1ccc(C)cc1)Cc1cccn1-c1nnc(N2CCCC2=O)s1 -8.08%
Cc1cccc(NC(=O)CSc2nnc3c4ccccc4n(C)c3n2)c1 -9.05%
CCc1ccc(S(=O)(=O)c2cn(CC(=O)Nc3cccc(C)c3)c3ccc(Cl)cc3c2=O)cc1 -12.4%
Cc1cc(Nc2cccc(O)c2)c2cccc(Br)c2n1 -7.4%
Cc1sc2ncn(CC(=O)Nc3ccc(C(F)(F)F)cc3)c(=O)c2c1S(=O)(=O)N1CCN(C)CC1 -5.44%
CCCc1cc(=O)[nH]c2nnc(SCCC(C)C)n12 -8.92%
COc1cc(NC(=O)CSc2ccc(-c3sc(-c4ccccc4)nc3C)nn2)cc(OC)c1 -11.2%
COC(=O)c1c(NC(=O)COc2ccc(OC)cc2)sc2c1CCC(C)C2 (stereo unspecified) -19.3%
CCCN1C(=O)C2(c3ccccc31)c1c(oc3cc(C)c(C)cc3c1=O)C(=O)N2CCCOC (stereo unspecified) -5.06%
CCC(=O)N1c2ccccc2CC1C(=O)NCCc1ccc(OC)cc1OC (stereo unspecified) -11.3%
CCn1cc(S(=O)(=O)c2ccc(C)cc2C)c(=O)c2cc(F)c(N3CCCC3)cc21 -6.23%
Cc1ccc(CSc2nnc3[nH]c(=O)cc(C)n23)cc1 -9.28%
CC(C)Oc1ccc(CNC(=O)C2CCCN(S(=O)(=O)c3ccc4c(ccn4C)c3)C2)cc1 (stereo unspecified) -19.8%
CCCn1cc(S(=O)(=O)c2ccc(OC)cc2)c(=O)c2cc(F)c(N3CCCCCC3)cc21 -12.9%
COc1ccc(CN2CCN(S(=O)(=O)c3ccccc3)CC2)c(OC)c1 -7.71%
CN1Cc2c(N)cccc2C(c2ccccc2)C1 (stereo unspecified) -17.4%
NC(=O)NNc1ccccc1 -25.3%
